Measured values from patent US20260166057A1, “1,3,5(10),16-ESTRATETRAEN-3-YL ACETATE FOR USE IN IMPROVING PSYCHOMOTOR OR COGNITIVE PERFORMANCE” (priority 2023, published 2026).

Tested on: healthy male volunteers
Test: Reaction Time Test (psychomotor performance) of the RTTET in mentally fatigued men
Assay type: in vivo, human
Conditions: relative to placebo, 9 p.m., midnight and 3 a.m. tests, ETA 1600 ng intranasal, caffeine 400 mg oral

Compound	reaction time (isochronous stimuli)	reaction time (stochastic stimuli)
CC(=O)Oc1ccc2c(c1)CC[C@@H]1[C@@H]2CC[C@]2(C)C=CC[C@@H]12 [ETA, 1,3,5(10),16-Estratetraen-3-yl acetate]	significantly decrease	significantly decrease
Cn1c(=O)c2c(ncn2C)n(C)c1=O [caffeine, reference compound]	significantly decrease	significantly decrease
